SMILES strings stand for the structures. Some of the results follow.

This experiment has as its system S. aureus RN4220. The experiment can be described thus: growth inhibition call (relative growth <= 0.2). The note with it: 50 µM.
`CO[C@H]1O[C@H](CO)[C@@H](OC(=O)c2ccc(Br)cc2)[C@@H]2OC(=O)[C@H](Cc3cccc(Br)c3)C/C=C/C[C@@H](Cc3cccc(Br)c3)C(=O)O[C@@H]12`: the growth inhibition call was “inactive”.

With `CCOC(=O)c1c(C)cc(OC)cc1O`, the growth inhibition call was “inactive”.

In the case of `COc1cccc(OC)c1C(=O)O[C@H]1[C@@H]2OC(=O)[C@H](Cc3cccc(Br)c3)C/C=C/C[C@@H](Cc3cccc(Br)c3)C(=O)O[C@H]2[C@@H](OC)O[C@@H]1CO`, the growth inhibition call is “inactive”.

`C[C@H]1CN([C@@H](C)CO)C(=O)c2cccc(NS(=O)(=O)c3ccccc3)c2O[C@@H]1CN(C)S(=O)(=O)c1cccs1`: the growth inhibition call is “inactive”.

Consider `C[C@@H]1CCCCO[C@H](CN(C)C(=O)c2ccccc2)[C@H](C)CN([C@@H](C)CO)C(=O)c2cc(NC(=O)NC3CCCCC3)ccc2O1`, for which the growth inhibition call is “inactive”.

Regarding `C[C@@H]1O[C@@H](O[C@H]2[C@H](OC(=O)[C@]34CCC(C)(C)C[C@H]3C3=CC[C@H]5[C@@]6(C)CC[C@H](O[C@@H]7O[C@H](CO)[C@@H](O)[C@H](O)[C@H]7O)C(C)(C)[C@@H]6CC[C@@]5(C)[C@]3(C)C[C@H]4O)OC[C@H](O)[C@@H]2O)[C@H](O)[C@H](O[C@@H]2OC[C@H](O)[C@H](O)[C@H]2O)[C@H]1O[C@@H]1OC[C@@H](O)[C@H](O[C@@H]2OC[C@H](O)[C@H](O)[C@H]2O)[C@H]1O`, the growth inhibition call is “inactive”.

As for `COc1ccc2c3c(n(c2c1)C)[C@H](CO)N(C[C@]13CCN(CC1)CC1CCOCC1)C(=O)Cc1ccccn1`, the growth inhibition call was “inactive”.

With `C[C@@H]1CCCCO[C@@H](CN(C)Cc2ccc(C(F)(F)F)cc2)[C@@H](C)CN([C@@H](C)CO)C(=O)c2cc(NS(=O)(=O)c3ccccc3)ccc2O1`, the growth inhibition call is “inactive”.

Take `CCOC(=O)CCCCCC(=O)Nc1ccc2c(c1)C(=O)N([C@H](C)CO)C[C@@H](C)[C@@H](CN(C)S(=O)(=O)c1ccc(C)cc1)OCCCC[C@H](C)O2`: the growth inhibition call was “inactive”.

In the case of `CCCCCC1C(=O)CCC1CC(=O)OC` (stereo not given), the growth inhibition call is “inactive”.

With `O=C(C[C@H]1CC[C@@H]2[C@H](COC[C@@H](O)CN2C(=O)Nc2cccc(F)c2)O1)NCCCN1CCOCC1`, the growth inhibition call was “inactive”.

For `C[C@@H]1CN([C@@H](C)CO)C(=O)c2cc(NC(=O)Nc3cccc4ccccc34)ccc2O[C@@H]1CN(C)Cc1ccc(Cl)c(Cl)c1`, the growth inhibition call was “inactive”.

In the case of `C[C@@H]1CN([C@@H](C)CO)C(=O)c2cccc(NS(=O)(=O)c3cn(C)cn3)c2O[C@@H]1CN(C)S(=O)(=O)c1ccccc1`, the growth inhibition call was “inactive”.

Consider `C[C@H](CO)N1C[C@H](C)[C@H](CN(C)C(=O)Nc2ccc(F)cc2)Oc2ccc(NC(=O)CCCN(C)C)cc2C1=O`, for which the growth inhibition call is “inactive”.

`C[C@H]1CN([C@@H](C)CO)C(=O)CCCn2nncc2CO[C@@H]1CN(C)C(=O)Nc1cccc(C(F)(F)F)c1`: the growth inhibition call was “inactive”.

`C[C@@H]1CCCCO[C@@H](CN(C)C(=O)c2ccncc2)[C@H](C)CN([C@@H](C)CO)C(=O)c2cc(NS(=O)(=O)c3cn(C)cn3)ccc2O1`: the growth inhibition call is “inactive”.

Turning to `O=C(CN1CCS(=O)(=O)CC1)NS(=O)(=O)c1ccccc1`, the growth inhibition call was “inactive”.

For the molecule `C[C@@H]1CCCCO[C@H](CN(C)Cc2ccncc2)[C@H](C)CN([C@@H](C)CO)C(=O)c2cc(NC(=O)Nc3ccc(C(F)(F)F)cc3)ccc2O1`, the growth inhibition call was “inactive”.

With `COC(=O)[C@@]12OC[C@]34[C@H]([C@@H](O)[C@@H]1O)[C@@]1(C)CC(=O)C(=O)[C@H](C)[C@@H]1C[C@H]3OC(=O)[C@H](OC(=O)/C=C(\C)C(C)C)[C@@H]24`, the growth inhibition call was “inactive”.

Turning to `O=C(C[C@H]1CC[C@@H](NC(=O)c2cccnc2)[C@H](CO)O1)NCCN1CCCCC1`, the growth inhibition call was “inactive”.

For `Cc1noc(C)c1NC(=O)Nc1ccc2c(c1)C(=O)N([C@H](C)CO)C[C@@H](C)[C@H](CN(C)Cc1ccc(-c3ccccc3)cc1)O2`, the growth inhibition call is “inactive”.

`N[C@H]1CC[C@H](CCn2cc(-c3ccccn3)nn2)O[C@@H]1CO`: the growth inhibition call was “inactive”.

On to `Nc1nc(=O)c2c(CCc3ccc(C(=O)NC(CCC(=O)[O-])C(=O)[O-])cc3)c[nH]c2[nH]1.[Na+].[Na+]` (stereo not given), for which the growth inhibition call is “inactive”.

Regarding `Cn1c(=O)c2c(ncn2CCCCn2cnc3c2c(=O)n(C)c(=O)n3C)n(C)c1=O`, the growth inhibition call was “inactive”.

Regarding `C[C@H]1CN([C@@H](C)CO)S(=O)(=O)c2ccc(C3=CCCCC3)cc2O[C@H]1CN(C)Cc1cncnc1`, the growth inhibition call was “inactive”.

On to `Cc1cc(C(=O)Nc2cccc3c2O[C@H](CN(C)S(=O)(=O)c2cn(C)cn2)[C@@H](C)CN([C@@H](C)CO)C3=O)n(C)n1`, for which the growth inhibition call is “inactive”.

For `C[C@@H]1CCCCO[C@H](CN(C)S(=O)(=O)c2ccc(Cl)cc2)[C@H](C)CN([C@H](C)CO)C(=O)c2cc(NC(=O)NC3CCCCC3)ccc2O1`, the growth inhibition call is “inactive”.

Consider `Cc1noc(C)c1NC(=O)N(C)C[C@@H]1Oc2c(NC(=O)Nc3ccc(C(F)(F)F)cc3)cccc2C(=O)N([C@H](C)CO)C[C@@H]1C`, for which the growth inhibition call was “inactive”.

Consider `C[C@H]1CN([C@@H](C)CO)C(=O)c2cc(NC(=O)Nc3cccc4ccccc34)ccc2O[C@@H]1CN(C)C(=O)Nc1ccc(F)cc1`, for which the growth inhibition call is “inactive”.

Regarding `C[C@@H]1CN([C@@H](C)CO)C(=O)Cc2cc(NS(=O)(=O)c3cn(C)cn3)ccc2O[C@@H]1CN(C)C(=O)Nc1ccc2c(c1)OCO2`, the growth inhibition call was “inactive”.

With `Cn1cnc(CCNC(=O)C[C@@H]2CC[C@H]3[C@@H](COC[C@@H](O)CN3C(=O)C3CC3)O2)c1`, the growth inhibition call is “inactive”.

`CC(C)NC(=O)N(C)C[C@H]1Oc2ccc(NC(=O)Cc3ccccc3)cc2C(=O)N([C@@H](C)CO)C[C@@H]1C`: the growth inhibition call was “inactive”.

Regarding `CC(C)NC(=O)N(C)C[C@@H]1Oc2ccc(NS(=O)(=O)c3ccccc3)cc2CC(=O)N([C@H](C)CO)C[C@H]1C`, the growth inhibition call was “inactive”.

On to `COc1ccc(S(=O)(=O)N(C)C[C@H]2Oc3c(NS(=O)(=O)c4cccs4)cccc3C(=O)N([C@H](C)CO)C[C@@H]2C)cc1`, for which the growth inhibition call was “inactive”.

On to `CN(C)CCN1C[C@@H]2CN(C(=O)[C@H]3CCOC3)C[C@H]2C1=O`, for which the growth inhibition call is “inactive”.

Turning to `COc1ccc(-c2cnc3c(c2)C(=O)N([C@H](C)CO)C[C@H](C)[C@H](CN(C)S(=O)(=O)c2cn(C)cn2)O3)cc1`, the growth inhibition call is “inactive”.

For `NC[C@H](c1ccccc1)N1CCOCC1`, the growth inhibition call is “inactive”.

In the case of `C[C@@H]1CN([C@@H](C)CO)S(=O)(=O)c2ccc(C#CC3(O)CCCC3)cc2O[C@@H]1CN(C)C(=O)Cc1cccnc1`, the growth inhibition call was “inactive”.

As to `C[C@H]1CN([C@@H](C)CO)C(=O)c2cccc(NS(C)(=O)=O)c2O[C@H]1CN(C)C(=O)Nc1ccc(F)cc1`, the growth inhibition call is “inactive”.

With `C[C@@H]1CCCCO[C@@H](CN(C)Cc2ccc(C(=O)O)cc2)[C@H](C)CN([C@@H](C)CO)C(=O)c2cc(NC(=O)NC3CCCCC3)ccc2O1`, the growth inhibition call was “inactive”.

These data come from the antibiotic and cytotoxicity screens of Wong et al. (2023).
